# Results: the supplement of paper PMC7826260
# Some of the results follow. The data describe in vitro nicking of single-stranded DNA by Rep domains for 1 h at 37 °C with 3 µM enzyme; only the middle of the 90-letter strands is printed. Uncut reads are compared with the no-enzyme pool on a log2 scale; strong cutting gives strongly negative numbers. There is no active / inactive call. Reads are scaled to the total; where an enzyme cuts many sequences, the uncut ones exceed 0.
# Key:
# Test in all cases: uncleaved DNA left, log2 of reads against the no-enzyme library (log2 ratio); higher = less cleavage (more negative = more Rep cleavage of the k-mer); sequences stand for … in CTCGTCCG…ACCGGAGA
# [1] = system: T1, Rep nickase domain of Muscovy duck circovirus
# T1 sequence (residues 1-111 of Rep, tag left off): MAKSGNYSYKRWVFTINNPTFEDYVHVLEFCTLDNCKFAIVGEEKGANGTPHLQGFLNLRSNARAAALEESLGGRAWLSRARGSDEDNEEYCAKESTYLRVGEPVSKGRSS
# Procedure: (§1)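 A pool of 90-nt single-stranded DNAs with seven random bases just before the constant AC of the nick site (name = the seven bases) was cut by 3 µM recombinant His6-SUMO-tagged Rep nickase domain (300 nM DNA, 50 mM HEPES pH 8.0, 50 mM NaCl, 1 mM MnCl2, 1 h, 37 °C, three replicates). Uncut DNA was amplified and sequenced.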
# [2] = system: T2, Rep nickase domain of banana bunchy top virus
# T2 sequence (residues 1-94 of Rep, tag left off): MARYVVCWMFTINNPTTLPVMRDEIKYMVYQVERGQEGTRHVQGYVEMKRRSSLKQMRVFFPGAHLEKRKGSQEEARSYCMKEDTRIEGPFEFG
# Procedure: as §1
# [3] = system: T3, Rep nickase domain of cabbage leaf curl virus
# T3 sequence (residues 1-116 of Rep, tag left off): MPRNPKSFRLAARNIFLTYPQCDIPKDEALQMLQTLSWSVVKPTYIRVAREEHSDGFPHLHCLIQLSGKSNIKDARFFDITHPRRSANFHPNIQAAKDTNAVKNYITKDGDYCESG
# Procedure: as §1
# [4] = system: T4, Rep nickase domain of chickpea chlorotic dwarf virus
# T4 sequence (residues 1-124 of Rep, tag left off): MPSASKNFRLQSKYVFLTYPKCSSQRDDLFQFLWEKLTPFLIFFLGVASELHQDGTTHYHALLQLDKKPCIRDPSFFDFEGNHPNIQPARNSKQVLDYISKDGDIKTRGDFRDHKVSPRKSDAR
# Procedure: as §1
# [5] = system: T5, Rep nickase domain of faba bean necrotic yellows virus
# T5 sequence (residues 1-98 of Rep, tag left off): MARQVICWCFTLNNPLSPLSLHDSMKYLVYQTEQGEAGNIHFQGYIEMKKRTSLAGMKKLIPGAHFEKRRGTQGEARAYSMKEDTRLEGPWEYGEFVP
# Procedure: as §1
# [6] = system: T6, Rep nickase domain of maize striate mosaic virus
# T6 sequence (residues 1-117 of Rep, tag left off): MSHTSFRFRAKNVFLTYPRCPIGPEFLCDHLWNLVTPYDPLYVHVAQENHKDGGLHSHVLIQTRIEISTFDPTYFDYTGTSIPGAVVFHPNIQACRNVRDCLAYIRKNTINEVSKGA
# Procedure: as §1
# [7] = system: T7, Rep nickase domain of porcine circovirus 2
# T7 sequence (residues 2-116 of Rep, tag left off): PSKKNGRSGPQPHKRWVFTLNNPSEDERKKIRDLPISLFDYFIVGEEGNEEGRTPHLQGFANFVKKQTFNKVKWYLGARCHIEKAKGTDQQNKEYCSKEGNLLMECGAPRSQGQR
# Procedure: as §1
# [8] = system: T8, Rep nickase domain of tomato yellow leaf curl virus
# T8 sequence (residues 1-136 of Rep, tag left off): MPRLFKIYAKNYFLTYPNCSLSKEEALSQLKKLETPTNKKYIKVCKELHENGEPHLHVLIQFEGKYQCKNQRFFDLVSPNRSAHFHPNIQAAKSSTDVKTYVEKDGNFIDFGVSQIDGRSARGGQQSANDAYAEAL
# Procedure: as §1
# [9] = system: T9, Rep nickase domain of wheat dwarf virus
# T9 sequence (residues 1-137 of Rep, tag left off): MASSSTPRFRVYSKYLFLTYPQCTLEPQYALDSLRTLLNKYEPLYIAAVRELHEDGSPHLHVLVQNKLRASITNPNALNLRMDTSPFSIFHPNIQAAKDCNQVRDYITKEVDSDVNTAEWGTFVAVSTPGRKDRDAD
# Procedure: as §1
Sequence,uncleaved DNA left (log2) [1],uncleaved DNA left (log2) [2],uncleaved DNA left (log2) [3],uncleaved DNA left (log2) [4],uncleaved DNA left (log2) [5],uncleaved DNA left (log2) [6],uncleaved DNA left (log2) [7],uncleaved DNA left (log2) [8],uncleaved DNA left (log2) [9]
GGCCGAC,0.0559,0.0099,0.625,1.59,0.0132,1.77,0.222,0.0995,0.0857
GAGGGGA,-0.00479,-0.142,0.656,1.11,-0.000606,1.82,0.102,-0.103,0.0615
TACCAGC,0.167,0.0231,-0.203,-0.696,0.0377,-0.911,-0.26,-0.00331,0.0403
CGTACAA,-0.000157,0.0421,0.0551,-0.148,-0.0482,-0.0791,-0.0804,-0.0166,0.0634
TTGACGT,0.179,0.141,-0.195,-0.178,0.0567,-0.566,0.158,0.123,0.125
GGTGCGA,-0.0755,-0.0887,-0.292,0.114,-0.101,-0.272,0.00174,-0.0938,-0.167
GATTAAG,0.0678,-0.0174,-0.769,-0.353,0.0246,-1.14,0.0893,-0.01,-0.107
GCGAAAC,0.0474,0.179,0.236,0.438,0.102,0.1,0.204,0.204,0.162
ATGTACT,-3.5,-2.49,-0.344,-2.94,-2.95,-0.598,-3.71,0.118,-0.0976
TCTCATC,0.257,0.204,0.198,0.154,0.231,-0.436,0.375,0.0739,0.282
AATTGTT,-3.75,-4.09,-3.19,-3.28,-1.57,-2.35,-4.51,0.0441,-1.3
AATCGCA,-0.0871,0.119,-0.463,-1.35,0.0147,-1.18,-0.0552,0.0574,-0.0531
ATTCGCT,-0.314,-0.253,-0.65,-1.43,-0.0507,-1.39,-1.07,-0.0416,-0.134
CCACTCC,-0.18,-0.123,-0.0652,-0.0541,-0.105,0.451,-0.0912,-0.0558,-0.163
TCGCTCA,-0.177,-0.115,-0.0452,-1.07,-0.0445,-0.516,-0.208,0.0122,-0.0532
CTTTGGG,-0.034,-0.0798,-0.729,-0.649,0.0409,-1.01,0.134,0.00647,-0.0502
TTACTAC,-2.68,-0.0439,-0.106,-2.64,0.0703,-0.173,-2.58,0.00841,-0.0851
ATTACTA,-0.0403,-0.0807,-0.269,-2.52,-0.037,-0.673,-0.188,0.0496,-0.0413
TCCCCTA,-0.329,-0.248,-0.0203,-0.907,-0.251,-0.53,-0.509,-0.216,-0.282
TCCAACG,0.0277,0.0712,-0.831,-0.831,0.0273,-1.18,0.0771,-0.0242,-0.0591
TCTCACG,0.00856,-0.137,-0.715,-0.767,0.11,-1.09,0.147,-0.0306,-0.179
AGCTACA,-0.0283,0.0594,0.000761,-0.386,-0.0132,0.874,-0.3,-0.104,-0.0618
GTGTCGC,-0.108,0.11,0.245,0.676,0.0106,1.2,0.176,0.0356,0.0581
ATTGAAT,-0.0446,-0.0834,0.155,0.239,0.0153,0.353,-0.515,0.0442,0.0538
GTTACAG,-0.0384,0.151,0.0503,-0.586,-0.0376,0.188,0.0766,0.0686,0.13
AGGGGCG,0.0248,-0.0347,-0.673,-0.0246,-0.0144,-0.539,0.121,-0.007,-0.201
GTAGAGA,0.0836,0.0932,0.654,1.26,0.162,1.49,0.209,0.138,0.13
GGTCAGA,0.025,0.167,0.756,1.74,-0.0124,2.06,0.178,0.0446,0.168
TCGGCAG,0.0182,0.00336,-0.221,-0.151,0.0922,-0.489,0.2,-0.0159,0.147
TCCCCAT,0.163,0.104,0.309,-0.388,0.0867,-0.231,-0.0272,0.208,0.129
